Measurements reported in US9976133B2, “Synzymes” (The Regents of the University of California, priority 2012, dated 2018).
“Also recorded” adds a separate entry of the source. Not every detail of the peptide structures is certain; ends, links or a residue may be inferred. Some entries repeat one wording, which the source may state once for all of them. No end group written: not given here.

What was measured:
Assay type in all cases: biochemical
[1] = Acetylation rate: synzyme-substrate reaction with p-nitrophenol acetate, absorbance of cleaved p-nitrophenol at 400 nm; details: for Acetylation Rate Constant: 100 μM compound, 100 μM p-nitrophenol acetate, 0.1× Tris-Borate buffer pH 8.5, 25° C., second-order, from initial rates; for Acetylation rate constant, in words: compared to acetyl-cysteine and acetyl-histidine controls or to the other polypeptides; for Ratio of Polypeptide 6/Control 3 Rate Constant: acetylation
[2] = Deacylation: Ellman's Reagent trapping experiment after acetylation with acetic anhydride, absorbance at 412 nm; details: for Deacylation Rate Constant: 15-fold excess acetic anhydride, then Ellman's Reagent at four times concentration, first-order, from initial rate; for Trapping effect of the Ellman's reagent (increase in Ellman's Reagent absorbance): in words; for Increase in deacylation rate constant: Ellman's Reagent reaction, versus controls; for Deacylation rate constant, in words: compared to the other polypeptides
[3] = Ellman's trapping experiment with applied pulsed electric field; details: 100 kHz, 1% duty cycle, 10 volts pk-pk, field applied 30 minutes after addition of Ellman's reagent

Sequence | Acetylation Rate Constant [1] [s⁻¹] | Deacylation Rate Constant [2] [mol/s] | Trapping effect of the Ellman's reagent (increase in Ellman's Reagent absorbance) [2] | Acetylation rate constant, in words [1] | Increase in deacylation rate constant [2] | Deacylation rate constant, in words [2] | Ratio of Polypeptide 6/Control 3 Rate Constant ([1]; pH 7.20 (10% S—)) | Ratio of Polypeptide 6/Control 3 Rate Constant ([1]; pH 7.74 (25% S—)) | Ratio of Polypeptide 6/Control 3 Rate Constant ([1]; pH 8.15 (50% S—)) | Ratio of Polypeptide 6/Control 3 Rate Constant ([1]; pH 8.67 (75% S—)) | Ratio of Polypeptide 6/Control 3 Rate Constant ([1]; pH 9.13 (90% S—)) | Deacylation rate under electric field [3]
RDFNFCAGD [Polypeptide 8, Arg-Asp-Phe-Asn-Phe-Cys-Ala-Gly-Asp, reference compound] | 117 ± 16 | 1.5 ± 1.3 | inert | – | – | – | – | – | – | – | – | –
GGAACAHAD [Polypeptide 2, Gly-Gly-Ala-Ala-Cys-Ala-His-Ala-Asp] | 231 ± 16 | 13 ± 11 | observed | statistically significant rate increase | – | – | – | – | – | – | – | –
RGAFCFHAD [Polypeptide 5, Arg-Gly-Ala-Phe-Cys-Phe-His-Ala-Asp] | 250 ± 10 | 85 ± 4 | observed | statistically significant rate increase; also recorded: second highest | over 200 fold | enhanced deacylation rate when compared to Polypeptide 6; also recorded: second highest | – | – | – | – | – | –
RGAACAHAD [Polypeptide 4, Arg-Gly-Ala-Ala-Cys-Ala-His-Ala-Asp] | 179 ± 7 | 40.2 ± 0.9 | observed | statistically significant rate increase | – | – | – | – | – | – | – | –
RGGHFCGPGHGHGD [Polypeptide 9, Arg-Gly-Gly-His-Phe-Cys-Gly-Pro-Gly-His-Gly-His-Gly-Asp] | 267 ± 16 | 88 ± 2 | observed | statistically significant rate increase; also recorded: slightly higher | over 200 fold | slightly higher | – | – | – | – | – | –
RGAACASAD [Polypeptide 3, Arg-Gly-Ala-Ala-Cys-Ala-Ser-Ala-Asp, reference compound] | 209 ± 5 | 2.6 ± 1.0 | inert | – | – | – | – | – | – | – | – | –
KGAFCFHAD [Polypeptide 6, Lys-Gly-Ala-Phe-Cys-Phe-His-Ala-Asp] | 237 ± 8 | 74 ± 8 | observed | statistically significant rate increase | over 200 fold | – | 2.15 | 1.76 | 1.23 | 1.03 | 1.00 | increase
GGAACASAD [Polypeptide 1, Gly-Gly-Ala-Ala-Cys-Ala-Ser-Ala-Asp, reference compound] | 153 ± 7 | 1.5 ± 1.2 | inert | – | – | – | – | – | – | – | – | –
RDFHFCAGD [Polypeptide 7, Arg-Asp-Phe-His-Phe-Cys-Ala-Gly-Asp] | 170 ± 20 | 26 ± 3 | observed | – | – | – | – | – | – | – | – | –
